Our source for the binding values is PMC4359148.

Chains of the proteins cited; added tags and fusions are not shown.
UniProt Q9LN01: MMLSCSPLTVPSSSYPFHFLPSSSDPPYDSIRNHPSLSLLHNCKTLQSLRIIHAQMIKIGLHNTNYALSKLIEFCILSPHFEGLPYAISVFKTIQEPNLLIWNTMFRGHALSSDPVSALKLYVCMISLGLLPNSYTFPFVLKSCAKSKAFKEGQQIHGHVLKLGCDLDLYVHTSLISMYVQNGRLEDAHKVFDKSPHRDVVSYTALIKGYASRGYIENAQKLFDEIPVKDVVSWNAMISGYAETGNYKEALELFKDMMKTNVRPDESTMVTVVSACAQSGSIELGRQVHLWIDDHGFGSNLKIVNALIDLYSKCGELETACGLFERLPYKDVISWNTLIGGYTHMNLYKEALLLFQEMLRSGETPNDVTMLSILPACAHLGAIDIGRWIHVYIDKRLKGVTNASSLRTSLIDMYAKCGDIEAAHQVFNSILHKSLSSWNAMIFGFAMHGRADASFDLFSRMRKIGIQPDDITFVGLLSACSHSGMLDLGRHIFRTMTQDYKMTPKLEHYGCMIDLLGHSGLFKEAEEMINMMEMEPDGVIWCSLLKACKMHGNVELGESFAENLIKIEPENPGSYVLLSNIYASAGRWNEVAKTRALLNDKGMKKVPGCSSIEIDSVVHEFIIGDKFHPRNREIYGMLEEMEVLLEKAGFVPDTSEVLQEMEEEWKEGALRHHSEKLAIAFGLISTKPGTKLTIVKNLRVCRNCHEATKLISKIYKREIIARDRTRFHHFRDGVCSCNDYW

No constants are given. Whether binding was seen depends on the method and setting. Some entries that bind do so weakly or less than the wild type. Sequences can lack the tags named with a protein.

What all share (assay): two-hybrid; Gal4 AD/BD fusions (pGADT7GW, pGBKT7GW) in yeast PJ69-4, double transformants by mating; growth on -Leu -Trp -His -Ade plates, 3 days at 30°C
Experiment [1] addresses T1, RIP2, mature, yeast two-hybrid fusion (A. thaliana) (UniProt O22793).
T1 sequence: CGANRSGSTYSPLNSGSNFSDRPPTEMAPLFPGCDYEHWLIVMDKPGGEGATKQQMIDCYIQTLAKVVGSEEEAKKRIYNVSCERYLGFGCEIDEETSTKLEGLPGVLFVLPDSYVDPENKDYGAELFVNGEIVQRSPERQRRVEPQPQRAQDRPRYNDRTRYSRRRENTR

Experiment [2] deals with T2, RIP1 (RIP/MORF family editing factor), yeast two-hybrid fusion (Arabidopsis thaliana) (UniProt Q9LKA5).
T2 sequence: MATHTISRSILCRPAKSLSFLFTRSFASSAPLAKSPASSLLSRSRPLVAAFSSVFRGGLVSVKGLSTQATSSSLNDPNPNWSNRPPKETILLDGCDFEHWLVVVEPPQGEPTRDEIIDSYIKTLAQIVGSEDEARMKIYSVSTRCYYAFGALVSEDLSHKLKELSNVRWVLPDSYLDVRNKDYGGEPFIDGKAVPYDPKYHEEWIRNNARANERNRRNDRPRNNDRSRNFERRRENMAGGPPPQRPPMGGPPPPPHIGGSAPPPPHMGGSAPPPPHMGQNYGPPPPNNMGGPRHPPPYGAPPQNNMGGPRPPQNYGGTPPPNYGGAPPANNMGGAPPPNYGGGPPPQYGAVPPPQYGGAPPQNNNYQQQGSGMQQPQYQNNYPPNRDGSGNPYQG

For experiment [3], the target named is T3, OZ1, mature (without the predicted 33 aa transit peptide), yeast two-hybrid fusion (A. thaliana) (UniProt Q8S9K3).
T3 sequence: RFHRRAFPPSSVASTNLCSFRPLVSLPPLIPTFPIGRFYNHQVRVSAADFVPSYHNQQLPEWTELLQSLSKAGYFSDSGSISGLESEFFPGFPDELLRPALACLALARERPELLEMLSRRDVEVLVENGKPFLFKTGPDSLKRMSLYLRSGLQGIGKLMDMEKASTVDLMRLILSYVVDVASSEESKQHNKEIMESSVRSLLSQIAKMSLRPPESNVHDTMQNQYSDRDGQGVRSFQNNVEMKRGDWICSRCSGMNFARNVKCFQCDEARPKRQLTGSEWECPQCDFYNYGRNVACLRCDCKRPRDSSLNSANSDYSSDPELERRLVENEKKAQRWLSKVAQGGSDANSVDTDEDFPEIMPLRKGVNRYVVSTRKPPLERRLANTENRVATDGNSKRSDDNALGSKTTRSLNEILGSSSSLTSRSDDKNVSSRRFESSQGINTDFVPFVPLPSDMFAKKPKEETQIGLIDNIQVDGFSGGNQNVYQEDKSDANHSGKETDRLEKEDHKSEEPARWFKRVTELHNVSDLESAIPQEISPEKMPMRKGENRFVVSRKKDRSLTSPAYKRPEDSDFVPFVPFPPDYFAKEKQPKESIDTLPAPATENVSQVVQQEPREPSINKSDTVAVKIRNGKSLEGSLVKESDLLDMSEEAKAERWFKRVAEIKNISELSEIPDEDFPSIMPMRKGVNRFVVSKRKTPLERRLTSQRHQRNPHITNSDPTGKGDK

Experiment [4] has as its target T4, RIP9, mature, yeast two-hybrid fusion (A. thaliana) (UniProt Q9LPZ1).
T4 sequence: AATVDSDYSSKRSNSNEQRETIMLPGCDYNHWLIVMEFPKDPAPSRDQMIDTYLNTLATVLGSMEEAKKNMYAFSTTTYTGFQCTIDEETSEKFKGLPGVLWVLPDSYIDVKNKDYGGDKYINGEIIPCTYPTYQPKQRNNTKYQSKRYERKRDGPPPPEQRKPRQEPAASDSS

The target in experiment [5] is T5, ORRM1, mature (without the predicted transit peptide), yeast two-hybrid fusion (Arabidopsis thaliana) (UniProt Q8L440).
T5 sequence: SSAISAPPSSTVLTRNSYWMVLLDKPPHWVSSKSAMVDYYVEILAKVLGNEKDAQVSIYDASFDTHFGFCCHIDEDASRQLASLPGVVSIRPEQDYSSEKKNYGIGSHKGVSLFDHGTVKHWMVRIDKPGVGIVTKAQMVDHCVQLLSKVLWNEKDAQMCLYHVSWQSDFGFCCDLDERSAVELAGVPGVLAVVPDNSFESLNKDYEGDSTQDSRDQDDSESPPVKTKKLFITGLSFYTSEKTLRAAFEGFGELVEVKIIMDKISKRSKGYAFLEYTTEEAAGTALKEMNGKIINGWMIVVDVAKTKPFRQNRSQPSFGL

The target in experiment [6] is T6, CRR28 (PPR site recognition factor), yeast two-hybrid fusion (Arabidopsis thaliana) (UniProt Q0WQW5).
T6 sequence: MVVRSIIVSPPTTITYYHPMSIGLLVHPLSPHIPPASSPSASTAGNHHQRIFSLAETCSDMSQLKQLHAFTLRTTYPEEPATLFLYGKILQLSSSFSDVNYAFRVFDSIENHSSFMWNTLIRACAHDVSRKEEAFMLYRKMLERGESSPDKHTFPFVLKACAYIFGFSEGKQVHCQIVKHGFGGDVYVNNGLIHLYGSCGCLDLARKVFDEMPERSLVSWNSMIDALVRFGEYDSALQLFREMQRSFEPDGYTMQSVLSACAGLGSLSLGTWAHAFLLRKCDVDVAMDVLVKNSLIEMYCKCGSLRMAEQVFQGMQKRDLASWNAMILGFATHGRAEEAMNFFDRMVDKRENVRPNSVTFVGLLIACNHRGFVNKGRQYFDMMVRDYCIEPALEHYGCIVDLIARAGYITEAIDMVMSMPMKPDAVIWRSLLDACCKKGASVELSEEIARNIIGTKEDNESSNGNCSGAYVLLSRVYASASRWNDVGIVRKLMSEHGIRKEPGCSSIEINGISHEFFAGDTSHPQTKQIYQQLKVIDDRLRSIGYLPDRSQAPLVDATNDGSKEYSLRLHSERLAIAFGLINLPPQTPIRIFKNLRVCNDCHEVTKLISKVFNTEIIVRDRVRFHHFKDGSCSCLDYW

Experiment [7] addresses OTP82 (PPR site recognition factor), yeast two-hybrid fusion (Arabidopsis thaliana) (UniProt Q9LN01).

B1: ORRM1, mature (without the predicted transit peptide), yeast two-hybrid fusion (protein, UniProt Q8L440 55-374)
chain: T5 sequence
Turning to B1, the binding entry in experiment [1], in experiment [2] and in experiment [3] was “binds” each time.

B2: cORRM1: amino acids 275-374 of ORRM1, which contains the RRM domain (domain or fragment, UniProt Q8L440 275-374)
chain: ESPPVKTKKLFITGLSFYTSEKTLRAAFEGFGELVEVKIIMDKISKRSKGYAFLEYTTEEAAGTALKEMNGKIINGWMIVVDVAKTKPFRQNRSQPSFGL
Regarding B2, the binding entry in experiment [3] is on record as “no binding”.

B3: nORRM1: amino acids 55-274 of ORRM1, which contains the RIP-RIP domain (domain or fragment, UniProt Q8L440 55-274)
chain: SSAISAPPSSTVLTRNSYWMVLLDKPPHWVSSKSAMVDYYVEILAKVLGNEKDAQVSIYDASFDTHFGFCCHIDEDASRQLASLPGVVSIRPEQDYSSEKKNYGIGSHKGVSLFDHGTVKHWMVRIDKPGVGIVTKAQMVDHCVQLLSKVLWNEKDAQMCLYHVSWQSDFGFCCDLDERSAVELAGVPGVLAVVPDNSFESLNKDYEGDSTQDSRDQDDS
Turning to B3, the binding entry in experiment [3] is recorded as “binds”.

B4: OZ1, mature (without the predicted 33 aa transit peptide), yeast two-hybrid fusion (protein, UniProt Q8S9K3 34-758)
chain: T3 sequence
Consider B4, for which the binding result is given as “no binding” in experiment [1]; “no binding” in experiment [4]; “binds weakly” in experiment [2]; “binds” in experiment [5]; “binds” in experiment [3]; “binds” in experiment [6]. Moreover, the binding entry in experiment [7] is on record as “binds”.
